Like-named read-outs stand apart in the source and are kept apart here.
Molecular target: SARS-CoV-2 NSP14 (Severe acute respiratory syndrome coronavirus 2, UniProt P0DTD1)
Experiment: biochemical
[1] = LUM % inhibition, read-out: SARS-CoV-2 NSP14 inhibition: IC50
[2] = LUM % inhibition, read-out: SARS-CoV-2 NSP14 inhibition: Maximum response
[3] = fit of concentration-response curve
[4] = Merged IC50 (µM), TDI-015051 series, retrospective VS set, biochemical MTase assay
[5] = TDI-015051 series, retrospective VS set, biochemical MTase assay, read-out: Merged IC50
[6] = Hill slope of the concentration-response fit
[7] = maximum response, LUM % inhibition, read-out: SARS-CoV-2 NSP14 inhibition: Maximum response (%)
[8] = read-out: SARS-CoV-2 NSP14 inhibition: IC50

| Compound | IC50 [1] [µM] | Emax [2] [%] | SARS-CoV-2 NSP14 inhibition: Hill slope [3] | other results |
| --- | --- | --- | --- | --- |
| Cc1cc(C(=O)NCc2ncc(C(=O)NCc3c(F)cccc3F)cn2)ccc1O [RU-0834132] | 23.9 | 34 | 0.827 |  |
| Cc1cc(C(=O)N[C@@H]2CC[C@H](CNC(=O)c3n[nH]c4ccccc34)C2)ccc1O [RU-0834155] | 32.4 | 49.6 | 0.765 |  |
| Cc1c(C(=O)NCc2ccc(CNC(=O)c3n[nH]c4ccccc34)cc2)ccc2cncn12 [RU-0834168] | 10.3 | 47.6 | 1.32 |  |
| Cc1c([S@](=N)(=O)c2cc(F)c3[nH]ncc3c2)cc(C(=O)NCc2c(F)ccc3cnn(C4CC4)c23)n1C [TDI-016489, Cc1c([S@](=N)(=O)c2cc(F)c3[nH]ncc3c2)cc(C(=O)NCc2c(F)ccc3cnn(C4CC4)c23)n1C] |  |  |  | IC50 [4]: 0.000121 µM |
| Cc1cc(CC(=O)NC[C@H]2[C@@H](CNC(=O)c3cc(C)c(O)c(C)c3)C2(F)F)ccc1F [RU-0834164] | 18.4 | 51.2 | 0.895 |  |
| Cc1cc(C(=O)NCC2(C)CCC(NC(=O)c3ncc4ccccn34)C2)cc2cn[nH]c12 (stereo not shown) [RU-0834202] | 18.7 | 57.6 | 0.981 |  |
| Cc1c(S(=O)(=O)N2CCn3nccc3C2)cc(C(=O)NCc2cccnc2N2CCCC2)n1CCO [TDI-014469, Cc1c(S(=O)(=O)N2CCn3nccc3C2)cc(C(=O)NCc2cccnc2N2CCCC2)n1CCO] |  |  |  | IC50 [5]: 0.0052 µM |
| Cc1cc(C(=O)NCC2(C)CCC(NC(=O)c3ncc4ccccn34)C2)cc(C)c1O (stereo not shown) [RU-0834101] | 12.3 | 29.7 | 1.12 |  |
| O=C(NCC1COC(CNC(=O)c2c(F)cc(O)cc2F)C1)c1ccn2nccc2c1 (stereo not shown) [RU-0834187] | > 125 | 12.6 | 15.3 |  |
| CCCS(=O)(=O)N1CCCc2ccc(NS(=O)(=O)c3ccc(NC(=O)CC)cc3C)cc21 [RU-0833865] |  |  |  | SARS-CoV-2 NSP14 inhibition: Hill slope [6]: 14; Emax [7]: 21.8%; IC50 [8]: > 125 µM |
| CC(NC(=O)c1cn(CCNC(=O)c2ccc(O)c(F)c2)cn1)c1ccccc1F (stereo not shown) [RU-0834138] | > 125 | 9.69 | -376 |  |
| Cn1ccn2ncc(C(=O)NCc3ccc(CCNC(=O)c4ccc5cncn5c4)cc3)c12 [RU-0834109] | 16.7 | 52.2 | 1.25 |  |
| Cc1c(S(=O)(=O)N2CCC(C)CC2)cc(C(=O)NCc2cccnc2N2CCCC2)n1C [TDI-013598, Cc1c(S(=O)(=O)N2CCC(C)CC2)cc(C(=O)NCc2cccnc2N2CCCC2)n1C] |  |  |  | IC50 (TDI-015051 series, retrospective VS set, biochemical MTase assay, read-out: Merged pIC50 (converted)): 0.0209 µM |
| CN(c1ccccc1)S(=O)(=O)c1cccc(NC(=O)Cn2cc(Br)ccc2=O)c1 [RU-0833923] | > 125 | 11.1 | 20.2 |  |
| COc1cccn2ncc(C(=O)NC[C@@H]3C[C@H]3CNC(=O)c3cc(C)c(F)c(C)c3)c12 [RU-0833683] |  |  |  | SARS-CoV-2 NSP14 inhibition: Hill slope [6]: 16.6; Emax [7]: 2.96%; IC50 [8]: > 62.5 µM |
| Cc1cc(C(=O)NCC2(C)CCC(NC(=O)c3cnn4ccccc34)C2)ccc1O (stereo not shown) [RU-0834129] | > 125 | 10.5 | 375 |  |
| Cc1cc(C(=O)N2CCC(C(C)CNC(=O)c3ncn4ccccc34)CC2)ccc1O (stereo not shown) [RU-0834092] | > 125 | 12.2 | 51.9 |  |
| O=C(NCc1ccc(C(=O)NCc2nnc3n2CCC3)nc1)c1ccc2nccn2c1 [RU-0834143] | > 125 | 10.5 | 13.1 |  |
| Cc1ccn2ncc(C(=O)NCCC3CCC(NC(=O)c4cnc5[nH]ncc5c4)C3)c2c1 (stereo not shown) [RU-0834106] | 50.8 | 55.6 | 0.958 |  |
| O=C(NC1CCSc2ccccc21)C1CCN(C(=O)c2ccc(F)cc2F)CC1 (stereo not shown) [RU-0833936] | > 125 | 9.41 | 2.18 |  |
| Cc1cc(CC(=O)NCc2cccc(NC(=O)c3cccc4ncccc34)c2)n[nH]1 [RU-0833686] |  |  |  | SARS-CoV-2 NSP14 inhibition: Hill slope [6]: 0.831; Emax [7]: 5.67%; IC50 [8]: > 62.5 µM |
| O=C(NCc1ccc(C(=O)NCc2ccccc2Cl)nc1)c1ccnc(CO)c1 [RU-0834126] | > 125 | 16.7 | 1.59 |  |
| O=C(NC1CC1)c1ccc(CNC(=O)N2CCc3cc(F)ccc32)cc1 [RU-0833941] | > 125 | 24.3 | 0.63 |  |
| Cn1nccc1CNC(=O)c1ccc(Cl)c(S(=O)(=O)c2ccc3[nH]ncc3c2)c1 [TDI-016684, Cn1nccc1CNC(=O)c1ccc(Cl)c(S(=O)(=O)c2ccc3[nH]ncc3c2)c1] |  |  |  | IC50 [5]: 0.073 µM |
| Cc1c(S(=O)(=O)N2Cc3c[nH]nc3[C@H](C)C2)cc(C(=O)NCc2c(F)ccc3occc23)n1C [TDI-015657, Cc1c(S(=O)(=O)N2Cc3c[nH]nc3[C@H](C)C2)cc(C(=O)NCc2c(F)ccc3occc23)n1C] |  |  |  | IC50 [4]: 0.000217 µM |

| Compound | IC50 [1] [µM] | Emax [2] [%] | SARS-CoV-2 NSP14 inhibition: Hill slope [3] | other results |
| --- | --- | --- | --- | --- |
| Cc1c(S(=O)(=O)c2ccc3[nH]ncc3c2)cc(C(=O)NCc2c(Cl)cnn2C)n1CC(F)F [TDI-016691, Cc1c(S(=O)(=O)c2ccc3[nH]ncc3c2)cc(C(=O)NCc2c(Cl)cnn2C)n1CC(F)F] |  |  |  | IC50 [4]: 0.00106 µM |
| COc1ccc(CCNC(=O)c2ccc(Cl)c(S(=O)(=O)N3CCCCC3)c2)cc1 [RU-0833901] | > 125 | 18.3 | 16.9 |  |
| O=C(c1cccc(NCc2cccc(F)c2)c1)N1CCC(CO)CC1 [RU-0833937] | > 125 | 7.47 | 16.1 |  |
| Cc1c(CC(=O)NCc2cccc(CNC(=O)c3ccc4cncn4c3C)c2)cnn1C [RU-0834118] | > 125 | 16.4 | 2.44 |  |
| CC(NC(=O)c1cccc(S(=O)(=O)Nc2cccc(Cl)c2)c1)c1ccc2c(c1)OCCO2 (stereo not shown) [RU-0833934] | > 125 | 9.86 | 2.93 |  |
| C[C@H](NCc1nc(CNC(=O)c2ccccc2)no1)c1ccc(Cl)cc1Cl [RU-0833649] |  |  |  | SARS-CoV-2 NSP14 inhibition: Hill slope [6]: 17.4; Emax [7]: 4.68%; IC50 [8]: > 62.5 µM |
| O=C(NC[C@H]1C[C@H](CNC(=O)c2ncn3ccccc23)C1)c1c(F)cc(O)cc1F [RU-0834151] | > 125 | 10.9 | 221 |  |
| O=C(Cn1cnc2ccccc2c1=O)Nc1cccc(S(=O)(=O)C2CCCC2)c1 [RU-0833908] | > 125 | 13.4 | 0.0894 |  |
| Cc1ccc(NS(=O)(=O)c2ccc3c(c2)OCCO3)cc1S(=O)(=O)Nc1ccc(F)cc1 [RU-0833658] |  |  |  | SARS-CoV-2 NSP14 inhibition: Hill slope [6]: 68.1; Emax [7]: 5.49%; IC50 [8]: > 62.5 µM |
| O=C(NCc1ccc(CNC(=O)c2n[nH]c3ccccc23)cc1)c1c(F)cc(O)cc1F [RU-0834170] | > 125 | 15.3 | 96.9 |  |
| Cc1cnc(C(=O)NCc2ccc(CCNC(=O)c3ccc4cncn4c3C)cc2)c(F)c1 [RU-0834176] | 18.8 | 76.8 | 0.909 |  |
| O=C(Cn1nc(-c2nc(-c3ccc(F)cc3)no2)ccc1=O)Nc1ccccc1F [RU-0833881] | > 125 | 17.1 | 49.1 |  |
| O=C(NCc1ccc(CNC(=O)C2CCc3ncnn3C2)cc1)c1cccc(F)c1Cl (stereo not shown) [RU-0834141] | > 125 | 13.1 | 70.5 |  |
| Cc1cc(C(=O)NC[C@@H]2[C@H](CNC(=O)Cc3ccc4c(c3)CC4)C2(F)F)cc(C)c1O [RU-0834163] | > 125 | 34.8 | 0.497 |  |
| Cc1ccc(S(=O)(=O)N2CCCC2)cc1C(=O)N[C@H](C)c1ccc(Br)cc1 [RU-0833643] |  |  |  | SARS-CoV-2 NSP14 inhibition: Hill slope [6]: 16.9; Emax [7]: 3.54%; IC50 [8]: > 62.5 µM |
| Cc1cc(C(=O)NCC2(CCNC(=O)c3cnn4ccccc34)CC2)cc2cn[nH]c12 [RU-0834082] | > 125 | 24.6 | 0.967 |  |
| Cc1cc(C(=O)NC2CC(O)(CNC(=O)c3ncn4ccccc34)C2)cc2c1CCC2 (stereo not shown) [RU-0834102] | > 125 | 12.2 | 14.9 |  |
| Cc1cc(CC(=O)N2CCOCC(CNC(=O)c3n[nH]c4ccccc34)C2)ccc1O (stereo not shown) [RU-0834127] | > 125 | 13.7 | 46 |  |
| Cc1[nH]c(C(=O)NCc2c(F)ccc3occc23)cc1S(=O)(=O)c1ccc2c(cnn2C)c1 [TDI-015757, Cc1[nH]c(C(=O)NCc2c(F)ccc3occc23)cc1S(=O)(=O)c1ccc2c(cnn2C)c1] |  |  |  | IC50 [5]: 0.0899 µM |
| CN(C)C(=O)CNc1cccc(C(=O)N2CCC[C@H](CO)C2)c1 [RU-0833626] |  |  |  | SARS-CoV-2 NSP14 inhibition: Hill slope [6]: 0.165; Emax [7]: 1.92%; IC50 [8]: > 62.5 µM |
| Cc1cc(CC(=O)NCCC(O)CNC(=O)c2ccc3c(c2)COC3)ccc1F (stereo not shown) [RU-0834116] | > 125 | 16.3 | 11.5 |  |
| Cc1cc(CC(=O)N2CCC(O)(C(C)CNC(=O)Cc3c(C)cccc3F)C2)ccc1O (stereo not shown) [RU-0834196] | > 125 | 10.7 | 174 |  |
| Cc1cc(C(=O)N[C@@H]2CC[C@H](CNC(=O)c3ncc4ccccn34)C2)ccc1O [RU-0834154] | 16.3 | 29.3 | 0.948 |  |
| CC1(CNC(=O)c2ccc3[nH]ncc3c2)CCC(NC(=O)c2ncn3ccccc23)C1 (stereo not shown) [RU-0834149] | > 125 | 14.2 | 43.2 |  |

Source: paper PMC12434519 (ACS Medicinal Chemistry Letters, 2025)
